About 14,000 (4.5%) of roughly 310,000 compounds showed an effect of 50% or more. Effects have a minus sign here. The list shows a part of the results. Where a SMILES comes first, the peptide text is derived from it. [ ]: non-standard residue; d: D form. The star is where a group is joined. ξ: configuration not given here. ξF = NC(Cc1ccccc1)C(=O)O; Cbz = O=C(OCc1ccccc1)*
Molecular target: human ether-à-go-go-related gene (hERG) potassium channel (human, UniProt Q12809)
Test: primary screen, population patch clamp on CHO cells stably expressing hERG
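Further: peak tail current of the secondary pulse compared with the same well before compound.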

Sequence of human ether-à-go-go-related gene (hERG) potassium channel (Q12809 whole entry, looked up): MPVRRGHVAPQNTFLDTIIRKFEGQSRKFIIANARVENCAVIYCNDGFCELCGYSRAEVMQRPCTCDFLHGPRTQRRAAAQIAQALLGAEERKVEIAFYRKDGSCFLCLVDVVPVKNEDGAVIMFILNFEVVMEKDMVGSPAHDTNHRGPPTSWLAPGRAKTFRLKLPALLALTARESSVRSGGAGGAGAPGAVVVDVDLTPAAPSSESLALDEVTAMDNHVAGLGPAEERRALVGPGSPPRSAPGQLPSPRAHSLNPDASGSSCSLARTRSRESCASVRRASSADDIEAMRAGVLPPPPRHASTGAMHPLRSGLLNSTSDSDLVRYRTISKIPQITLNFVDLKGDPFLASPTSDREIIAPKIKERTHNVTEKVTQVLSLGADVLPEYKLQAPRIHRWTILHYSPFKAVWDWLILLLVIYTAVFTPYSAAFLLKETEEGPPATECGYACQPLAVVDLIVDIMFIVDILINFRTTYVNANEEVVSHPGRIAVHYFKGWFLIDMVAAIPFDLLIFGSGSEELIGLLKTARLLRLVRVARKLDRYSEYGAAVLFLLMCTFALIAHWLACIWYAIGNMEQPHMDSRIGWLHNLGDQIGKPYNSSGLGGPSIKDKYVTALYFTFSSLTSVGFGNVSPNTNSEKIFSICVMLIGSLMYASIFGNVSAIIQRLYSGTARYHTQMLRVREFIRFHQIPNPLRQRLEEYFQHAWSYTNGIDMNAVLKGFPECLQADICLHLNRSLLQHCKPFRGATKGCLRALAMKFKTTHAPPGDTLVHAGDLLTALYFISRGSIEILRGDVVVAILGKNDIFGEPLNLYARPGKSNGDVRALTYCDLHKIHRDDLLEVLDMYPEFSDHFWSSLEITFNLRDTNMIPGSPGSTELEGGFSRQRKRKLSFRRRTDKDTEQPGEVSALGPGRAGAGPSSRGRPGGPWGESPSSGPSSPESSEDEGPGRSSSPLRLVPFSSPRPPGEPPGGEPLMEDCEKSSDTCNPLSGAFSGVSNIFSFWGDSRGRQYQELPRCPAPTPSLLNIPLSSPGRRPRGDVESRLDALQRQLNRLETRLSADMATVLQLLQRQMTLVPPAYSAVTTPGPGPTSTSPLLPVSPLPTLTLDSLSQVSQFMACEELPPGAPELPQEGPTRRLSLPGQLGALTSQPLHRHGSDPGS

Row | SMILES | hERG current change (%, negative = inhibition) at 10uM [%]
1 | Oc1ccc[n+](CC(O)c2ccccc2)c1.[Br-] (centres unmarked) | 18.7
2 | Cc1cc(OCC(=O)NCc2ccncc2)c2c3c(c(=O)oc2c1)CCC3 | -10.3
3 | Cc1ccccc1Nc1nnc(C)c(=O)n1N | -0.0645
4 | COc1cc(-c2nnc(-c3ccncc3)o2)ccc1OCc1ccccc1 | 4.05
5 | Cc1ccc(S(=O)(=O)N2CCOCC2)cc1NC(=O)Cn1cc(C(F)(F)F)cc(Cl)c1=O | 10.1
6 | CC1=C(OC(=O)c2ccccc2)C(C)(C)C(c2ccccc2)OC1=O (centres unmarked) | -5.7
7 | COCCNC(=O)c1ccccc1NC(=O)c1ccccc1N(C)S(C)(=O)=O | 20.6
8 | CC(C)c1nc(NCCO)c(C#N)c2c1CCCC2 | -7.11
9 | COCc1[nH]nc2c1C(c1ccsc1)C(C#N)=C(N)O2 (centres unmarked) | 10.9
10 | CN(C)S(=O)(=O)c1ccc(Cl)c(NC(=O)COc2ccccc2[N+](=O)[O-])c1 | -13.1
11 | c1ccc(OCCSc2nc3ccccc3[nH]2)cc1 | 6.94
12 | Cn1nc(-c2ccccc2)cc1NC(=O)c1ccc(Cl)cc1 | -9
13 | COc1ccc(NC(=O)Nc2nnc(C(C)(C)C)s2)cc1 | -18.8
14 | Cc1cc(C(=O)CN2C(=O)c3ccccc3C2=O)c(C)n1C1CC1 | -1.31
15 | CCOC(=O)N1CCN(S(=O)(=O)c2cc(Br)cc3c2N(C(=O)C2CC2)CC3)CC1 | 3.54
16 | NS(=O)(=O)c1ccc(CCNC(=O)c2cc3ccccc3s2)cc1 | 16.9
17 | CCc1noc(C)c1C(=O)N1CCCSC1=Nc1ccccc1C(C)C | 0.786
18 | COc1ccc(CNC(=O)COC(=O)CCc2nc3ccccc3c(=O)[nH]2)cc1 | 22.5
19 | CC1(C)CCC(=O)N2CC[C@H]3C[C@H](OC(=O)Nc4ccccc4)C[C@@H]1[C@H]32 | -11.9
20 | O=C(Nc1ccc(F)cc1)Nc1ccc([N+](=O)[O-])cn1 | 13.5
21 | CC(C)n1nccc1NC(=O)Nc1ccccc1 | 23.7
22 | O=C(C1CCCN(Cc2ccccc2F)C1)N1CCCCC1.O=C(O)C(=O)O (centres unmarked) | 8.62
23 | C=C1CSc2nc(=O)c3c4c(sc3n21)CCCC4 | -35

Row | SMILES | hERG current change (%, negative = inhibition) at 10uM [%]
24 | CCOC(=O)C1CCCN(S(=O)(=O)c2ccc(S(=O)(=O)N(CC)CC)cc2)C1 (centres unmarked) | -30.4
25 | Cc1cccc(CS(=O)(=O)Cc2ccc(C(=O)NCc3cccnc3)o2)c1 | -3.42
26 | CC1(C)CC(=O)C2=C(C1)Oc1nc3ccccc3cc1C2C(C#N)C#N (centres unmarked) | 15.1
27 | COc1cccc(C(C2=C(O)CC(C)(C)CC2=O)C2C(=O)CC(C)(C)CC2=O)c1 (centres unmarked) | 15.3
28 | CC(C)N(C(=O)Cn1c(-c2cccnc2)ccc(C#N)c1=O)C(C)C | 6.41
29 | Cc1ccc(NC(=O)C2CCCN2C(=O)NC2CCCCC2)cc1F (centres unmarked) | 1.22
30 | Cc1ccc2nc(CSc3nnc(Nc4ccccc4F)s3)cc(=O)n2c1 | -31.6
31 | NC(=O)C1(N2CCCCC2)CCN(S(=O)(=O)c2ccc(Cl)s2)CC1 | -42.2
32 | Cc1cc(C(=O)CSc2nnc(C3COc4ccccc4O3)n2C)c(C)n1-c1ccc(F)cc1 (centres unmarked) | -4.9
33 | O=C(Cc1ccccc1F)Nc1cccc2cccnc12 | -9.77
34 | CCc1nc(SCC(=O)c2cccs2)c2oc3ccccc3c2n1 | 22.7
35 | CCn1c(O)c(N=Nc2ccc(S(=O)(=O)N3CCOCC3)cc2)c(=O)n(CC)c1=S | -2.36
36 | Cn1cccc1/C=N/n1c(-c2ccc(Cl)cc2Cl)n[nH]c1=S | 1.87
37 | Cc1onc(-c2c(Cl)cccc2Cl)c1C(=O)N1CCN(c2ncccn2)CC1 | -3.56
38 | C=CCn1c(CCCNC(=O)CCC)nc2ccccc21 | -4.6
39 | CCCC(=O)N1CCN(c2nnc(-c3ccccc3)c3ccccc23)CC1 | -45.4
40 | CCSc1nnc(NC(=O)c2nn(C(C)C)c(=O)c3ccccc23)s1 | -24.7
41 | Cc1ccc(-c2csc3nc(C)n(-n4cccc4)c(=O)c23)o1 | -7.17
42 | COc1ccc(N(CC(=O)Nc2cc(OC)ccc2OC)S(=O)(=O)c2c(C)noc2C)cc1 | 3.98
43 | Cc1ccc(S(=O)(=O)N2CCN(C(=O)c3ccc(Cl)nc3)CC2)cc1 | 2.73
44 | Cc1ccc(SC2=C(C(=O)O)CCCC2)cc1 | 4.25
45 | O=C1C2C3C=CC(C3)C2C(=O)N1/N=C/c1cc(Br)cc([N+](=O)[O-])c1O (centres unmarked) | -1.76
46 | COc1ccc(NC(=S)NNC(=O)c2ccccc2OC(F)F)cc1 | -2.29

Row | SMILES | hERG current change (%, negative = inhibition) at 10uM [%]
47 | CC1(C)CC(=O)c2sc(N3CCCCC3)nc2C1 | -2.83
48 | COc1ccccc1-c1cc(C(=O)NC(C)C)no1 | -8.87
49 | CCCCCN(C(=O)CCC(=O)OCC(=O)N(CC#N)c1ccccc1)c1c(N)n(CCCC)c(=O)[nH]c1=O | -0.196
50 | COc1cccc(-c2nc(CS(=O)CC(=O)NCCc3ccc(C)cc3)c(C)o2)c1 (centres unmarked) | 7.55
51 | Cc1ccc(OCCc2csc(N)n2)cc1 | 20.5
52 | COC(=O)c1ccc(COc2ccc(/C=N/O)cc2)o1 | -11.1
53 | CCn1c(SCC(=O)Nc2nc3c(s2)CCCC3)nnc1-c1ccccc1 | -56.2
54 | Cc1cccc(NC(=O)c2ccc(CN3CCN(Cc4ccccc4)CC3)cc2)c1 | -80.3
55 | Cn1c(=O)cc(Cl)[nH]c1=O | 24.3
56 | CCn1c(SCC(=O)NCc2ccco2)nnc1-c1c[nH]c2ccccc12 | 6.17
57 | C=CCn1c(-c2oc3nc(-c4ccccc4)cc(-c4ccccc4)c3c2N)n[nH]c1=S | -2.49
58 | COc1ccc(NC(=O)Cc2nnc(SCC(=O)NC3=NCCS3)n2C)cc1 | -7
59 | CC1(C)Cc2ccccc2-c2nnc(SCC(=O)N3CCc4ccccc43)n21 | 5.65
60 | O=C(CCc1ccccc1)Nc1ccc2c(c1)OCO2 | 19.3
61 | Cc1ccc(CN(C)C(=O)COC(=O)CSc2cc(C)c3ccccc3n2)cc1 | 9.84
62 | CC12CCC(C/C1=N\N=C1\NC(=O)/C(=C\c3cccc(Br)c3)S1)C2(C)C (centres unmarked) | 12.3
63 | C[N+]1(C)[C@@H]2CC[C@H]1CC(OC(=O)C(CO)c1ccccc1)C2.O=[N+]([O-])[O-] (some centres unmarked) | 13.4
64 | O=Cc1c(NCc2ccccc2)c2ccccc2[nH]c1=O | 10
65 | O=C(O)CNC(=O)C(Cc1ccccc1)NC(=O)OCc1ccccc1 (centres unmarked) (Cbz-[ξF]-Gly-OH) | 16.3
66 | CC(C)N(C(=O)Cn1cnc2cc([N+](=O)[O-])ccc2c1=O)C(C)C | 7.76
67 | CCOc1cc(N2CCOCC2)c(OCC)cc1NS(=O)(=O)c1cc(NC(C)=O)ccc1OC | 2.07
68 | O=C(Nc1ccccc1-c1nc2ccccc2s1)C1=COCCO1 | 0.377
69 | CCC(C(=O)NC1CCCCC1)n1c2ccccc2c2nc(=O)cc(C)n21 (centres unmarked) | 10.4

Row | SMILES | hERG current change (%, negative = inhibition) at 10uM [%]
70 | COc1ccc(CNC(=O)CSc2nc3cccnc3s2)cc1 | -8.21
71 | CCc1cc(=O)oc2cc(C)cc(OCC(=O)NCC(O)c3ccccc3)c12 (centres unmarked) | -1.76
72 | O=C(c1n[nH]c(=O)c2ccccc12)N1CCN(S(=O)(=O)c2ccccc2Cl)CC1 | -19.9
73 | COc1ccc(OC(=O)c2cnn(-c3ccccc3)c2C)cc1 | 17.3
74 | O=C(CCSc1ccccc1)N1CCN(C(=O)c2ccco2)CC1 | -23.6
75 | CCN(CC)CCNC(=O)C1c2ccccc2C(=O)N(CCOC)C1c1ccc(F)cc1 (centres unmarked) | 12.2
76 | COC(=O)CCC(=O)Oc1ccc(OC(=O)CCC(=O)OC)cc1 | 10.5
77 | N#Cc1ccc(NCC(=O)N2CCN(S(=O)(=O)c3ccccc3)CC2)cc1 | -70.2
78 | COc1ccc(CCC(=O)N/N=C(\C)c2ccc3c(c2)OCO3)cc1 | 9.45
79 | C=C(C)CSCc1nc2ccccc2[nH]1 | 11.1
80 | O=C(C=C1CCN(c2ncc(C(F)(F)F)cc2Cl)CC1)NNC(=O)Nc1ccccc1 | -4.13
81 | COC(=O)c1cc(Cl)c(N)cc1OC | -8.14
82 | CN(Cc1nccn1C)C(=O)CC1C(=O)NCCN1Cc1ccc(F)cc1Cl (centres unmarked) | -68.9
83 | Cn1cccc1C(=O)NC(=O)COC(=O)CNS(=O)(=O)c1ccc(Br)cc1 | -3.81
84 | COc1ccc(CCNC(=O)CSc2nnnn2-c2ccccc2OC)cc1OC | -0.607
85 | CCOc1ccccc1NC(=O)c1cc(=O)c2ccccc2o1 | 20.8
86 | CCCCn1c(Nc2ccccc2)nc2ccccc21 | 24.7
87 | Cn1cc(CN2CCN(Cc3ccc4c(c3)OCO4)CC2)c(-c2ccccc2F)n1 | -20.1
88 | O=C(NCc1ccccc1)Nc1cccn(Cc2cccc(F)c2)c1=O | 4.7
89 | O=C(O)c1ccccc1-c1nc2ccccc2[nH]1 | 19.6

Source: PMC4336329 (PLoS ONE, 2015)
